The supplement of paper PMC6531468
Some of the results follow. Read counts after selection give these values, which scatter widely. Scores sum up all selected molecules that hold the word; the word was not tested alone.

What follows are sequences tested on IMP3 KH1-2 (assay: 6-mer SELEX enrichment z-score vs GST control; IMP3 is the RNA-binding protein IGF2BP3; higher = more enriched by binding). Settings: construct: KH1-2 (164-376); SELEX round: R4.
Procedure: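 SELEX-seq with GST-tagged IMP3 KH1-2 (Pro164-Phe376) and an N40 RNA pool, round 4 (stringent 300/600 mM KCl washes). 6-mer z-score of sequence-tag enrichment normalised to the corresponding GST SELEX round; RNA k-mers written as DNA (T for U).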

IMP3 KH1-2, sequence (chain, as listed by the source): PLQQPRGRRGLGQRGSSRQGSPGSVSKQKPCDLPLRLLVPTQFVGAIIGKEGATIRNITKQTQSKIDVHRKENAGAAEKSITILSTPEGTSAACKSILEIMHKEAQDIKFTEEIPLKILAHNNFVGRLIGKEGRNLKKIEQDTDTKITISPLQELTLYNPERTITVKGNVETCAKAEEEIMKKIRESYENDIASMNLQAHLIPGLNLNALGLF

Sequence	6-mer SELEX enrichment z-score
CGAATC	-0.87
AGCACG	-0.014
GAGGCG	0.589
TTATAC	1.07
TCTTCT	0.558
CATTAG	0.522
ACGGAC	-0.474
CAATAT	1.92
AACCGA	-2.13
ACTTAG	-0.144
TCTGTT	0.507
CCCCTC	-0.041
CAGTAA	0.635
CTGACA	0.247
AACTGG	-0.209
GCTCCT	0.2
GTTATC	-0.218
GGGTGC	0.181
AGTGTC	-0.522
TGGACT	-0.103

Sequence	6-mer SELEX enrichment z-score
CCAATC	-0.798
TCGTTC	0.015
CTGTCG	-0.011
GAGTGT	-2.06
GTAGAT	-0.358
CCTAGT	-0.38
CGGCTC	0.174
AGTGAG	-0.119
CAGATT	0.898
CTATTG	0.24
GGTGCT	-0.064
GGTGGT	0.463
CGTAGT	-1.05
AACCCG	-2.4
ATATAT	2.05
CGCATC	0.482
TTAATC	0.64
TAAGCT	-0.113
GGGGGT	0.996
GGGCAT	0.762
